According to PMC9911399, “Two distinct binding modes provide the RNA-binding protein RbFox with extraordinary sequence specificity”:
Numbering of substitutions follows the chain as printed; changes in the protein carry UniProt numbers. This is one part of the list.

T1: RBFOX1 RRM RbFoxmut (Fox-RRM*) (Homo sapiens, UniProt Q9NWB1 109-208, R118D;E147R;N151S;E152T)
T1 sequence: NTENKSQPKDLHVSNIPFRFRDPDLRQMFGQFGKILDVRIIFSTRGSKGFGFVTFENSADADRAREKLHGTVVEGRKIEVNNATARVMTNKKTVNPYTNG

B1: CAUACAU (DNA:RNA)
RNA: GGGAGACCGGAAUUCAGAUUGUCCCAUACAUUUAAAUCCCGUCGUAGCCACCA
DNA 1: CAATCTGAATTCCGGTCTCCC
DNA 2: TGGTGGCTACGACGGGATT
B2: GUGGAGG (DNA:RNA)
RNA: GGGAGACCGGAAUUCAGAUUGUCCGUGGAGGUUAAAUCCCGUCGUAGCCACCA
DNA 1: CAATCTGAATTCCGGTCTCCC
DNA 2: TGGTGGCTACGACGGGATT
B3: CUGCUUU (DNA:RNA)
RNA: B1 RNA with A26U, U27G, A28C, C29U, A30U
DNA 1: CAATCTGAATTCCGGTCTCCC
DNA 2: TGGTGGCTACGACGGGATT
B4: UCACGGC (DNA:RNA)
RNA: B2 RNA with G25U, U26C, G27A, G28C, A29G, G31C
DNA 1: CAATCTGAATTCCGGTCTCCC
DNA 2: TGGTGGCTACGACGGGATT
B5: AAAUAGU (DNA:RNA)
RNA: B1 RNA with C25A, U27A, A28U, C29A, A30G
DNA 1: CAATCTGAATTCCGGTCTCCC
DNA 2: TGGTGGCTACGACGGGATT
B6: CUCUACG (DNA:RNA)
RNA: B2 RNA with G25C, G27C, G28U, G30C
DNA 1: CAATCTGAATTCCGGTCTCCC
DNA 2: TGGTGGCTACGACGGGATT
B7: ACUCCUC (DNA:RNA)
RNA: B1 RNA with C25A, A26C, A28C, A30U, U31C
DNA 1: CAATCTGAATTCCGGTCTCCC
DNA 2: TGGTGGCTACGACGGGATT
B8: GACCCAA (DNA:RNA)
RNA: B1 RNA with C25G, U27C, A28C, U31A
DNA 1: CAATCTGAATTCCGGTCTCCC
DNA 2: TGGTGGCTACGACGGGATT
B9: CGGAGGG (DNA:RNA)
RNA: B2 RNA with G25C, U26G, G28A, A29G
DNA 1: CAATCTGAATTCCGGTCTCCC
DNA 2: TGGTGGCTACGACGGGATT

Target: T1, RBFOX1 RRM RbFoxmut (Fox-RRM*)
Test: EMSA; HiTS-Eq, 1 nM pool, 10 min; buffer printed only for the single-RNA assays: 10 mM Tris pH 7.5, 150 mM NaCl, 3.4 mM EDTA, 0.001% NP-40, 30 C
Details: tags: His6 N-terminal (pET28a); label: 5' 32P
Summary of the method: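 Purified RbFox RRM (wild type or mutant) was equilibrated for 10 min in 50 µL with 1 nM of a 5′-radiolabelled pool of RNA with 7 randomized nucleotides, its flanks annealed to DNA oligonucleotides, across increasing protein concentrations. Free RNA was separated by 8% native PAGE, excised, reverse-transcribed, PCR-barcoded and sequenced on an Illumina HiSeq 2500. Relative association constants came from read-count changes of each variant against the control reaction, normalised to the cognate motif.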

Row | Binder | binding signal
1 | B1 | 0.0896 KA relative to UGCAUGU
2 | B2 | 0.108 KA relative to UGCAUGU
3 | B3 | 0.0878 KA relative to UGCAUGU
4 | B4 | 0.0983 KA relative to UGCAUGU
5 | B5 | 0.0888 KA relative to UGCAUGU
6 | B6 | 0.131 KA relative to UGCAUGU
7 | B7 | 0.0805 KA relative to UGCAUGU
8 | B8 | 0.0621 KA relative to UGCAUGU
9 | B9 | 0.0657 KA relative to UGCAUGU
